# Experimental data taken from ChEMBL document CHEMBL4888484, “Replenishing the malaria drug discovery pipeline: Screening and hit evaluation of the MMV Hit Generation Library 1 (HGL1) against asexual blood stage Plasmodium falciparum ,using a nano luciferase reporter read-out” (2022).
# The campaign covered roughly 150,000 compounds. About 540 (0.36%) showed an effect of 50% or more. Some of the results follow.
# Tested on: Plasmodium falciparum
# Test: Primary screen in NF54 nanoGlo assay, in single point, at 2uM, 72h; a lower Z score goes with more inhibition
# Type: functional, Erythrocyte
# Details: timepoint 72 hour
SMILES,% Inhibition [%],Z score
Cc1nnc2ccc(NC3CC=CC3)nn12,-12,1.71
Cn1ncnc1[C@@H](NC(=O)CCCOc1ccccc1)C1CC1,-13,2.03
CCOc1ccc(-c2cc3nc(C4CCN(C(=O)OC(C)(C)C)CC4)c(C(=O)Nc4ccc(Br)c(C)c4)cn3n2)cc1,-1,0.08
CO[C@@H]1CC[C@@]2(OC)CCN(C(=O)c3cccc4cc(C)oc34)[C@H]2C1,3,-0.34
CCc1nocc1CN1CCO[C@H](c2cccs2)C1,-8,1.19
Cc1cc(NC(=O)[C@@H]2CCCN2C(=O)c2cccs2)sn1,-2,0.31
CCc1nocc1CN(C)C(=O)[C@@H]1CCCCC(=O)N1,2,-0.27
CN(C)c1cc(C(=O)Nc2c(O)cccc2F)ccn1,-12,1.81
Cc1ccccc1NC(=O)Nc1ccc(-n2nc(OCc3ccc(F)cc3)nc2-c2ccc(C(F)(F)F)cc2)cc1,-13,1.47
O=C(Cn1ncnn1)NCCc1ccc(Br)cc1Cl,-21,2.75
Cc1noc(OCCc2ccccc2)n1,32,-1.07
Cc1ccsc1CN(CCC(N)=O)C(C)C,-12,1.56
Cc1ccc2ncccc2c1-c1cc(C2CC2)ncn1,-10,1.35
Cn1cc(NC(=O)c2sccc2S(=O)(=O)N2CCc3ccccc3C2)cn1,0,0.03
COCCNC(=O)CN(C)C(=O)c1ccc(Cl)cc1F,-10,0.81
C[C@H](NS(C)(=O)=O)c1nc(C2CCCC2)nn1CCc1ccccc1,-33,2.9
CCN1CCC[C@@H]1CNc1nccc(-c2ccccn2)n1,-15,2.31
COc1ncccc1NC(=O)c1cccnc1O,-7,1.33
C#CC1CN(C(=O)c2cc(Cl)c3c(c2)OCCCO3)C1,-18,2.65
COc1ccc(CCNC(=O)c2c(C)noc2-c2cccc(F)c2)cc1OC,-12,1.14
O=C(OC1(C2CC2)CC1)c1ccc2nncn2c1,-15,2.37
Cc1ncc(C(=O)N2CCC3(CC2)CC(=O)N(CC(C)C)C3)cn1,-5,0.97

SMILES,% Inhibition [%],Z score
COc1ccc(-c2cc(C[C@H]3CNCC[C@H]3CC(=O)Nc3ccccc3)no2)cc1,37,-1.45
Cc1ccc(NC(=O)c2cccc(-c3nc(-c4ccc(F)cc4)no3)c2)nc1,-16,1.78
O=C(c1ccc(Br)o1)N1CC(Oc2nc3c(F)cccc3s2)C1,-16,1.81
CCOC(=O)C(Cc1ccc(OC(=O)C2C3CCCCC32)cc1)NC(=O)C1C2CCCCC21 (stereo not given),-1,0.22
Cc1ccccc1OCC(=O)Nc1nc(-c2c[nH]c(C(N)=O)c2)cs1,-9,1.17
CC[C@H](NC1CCN(c2nc(C)nc3sccc23)CC1)c1ccc(C)cn1,-13,2.31
CCS(=O)(=O)N[C@H](c1ccccn1)C(C)C,-8,1
OCC1(Cn2cc(-c3ccc4nsnc4c3)nn2)CC1,-12,2.28
O=C(NC[C@H]1CCCN(Cc2sc3ccccc3c2Cl)C1)c1cccs1,-20,1.75
Cc1ccc(O[C@H]2CCCN(S(=O)(=O)C3CC3)C2)nn1,-7,0.8
Cc1ccc(S(=O)(=O)Nc2ccc(-c3noc(-c4ccccc4)n3)cc2)cc1,0,0.05
N#Cc1ccc(C(=O)N2C[C@@H]3CC[C@H]2CN(c2cnccn2)C3)cc1,-17,2.45
CCOCC(=O)N1CCC(CCc2noc(N(C)C)n2)CC1,-4,0.68
C[C@H]1Cc2cc(-c3ccc(CNC(=O)C4CCC(O)CC4)cc3)ccc2O1 (stereo not given in full),-9,1.86
Cc1ccc(-c2c3c(=O)n(C)c(=O)n(C)c3c3n2-c2ccccc2N[C@@H]3c2ccc(C#N)cc2)cc1,6,-1.09
CN1C[C@H](O)[C@@H](N2CCC(c3cc(Cc4ccccc4)n[nH]3)CC2)C1,-27,2.59
CCOc1ccccc1NC(=O)CN1CCN(Cc2ccc(F)cc2)C(=O)C1=O,-7,0.69
O=C(NC[C@@]1(CCO)CCOC1)c1cccnc1C1CC1,-5,0.49
CN(C)c1nsnc1Nc1cccc(Cl)c1,-33,3.87
O=C(NCCn1c(=O)n(Cc2ccc(F)cc2)c2cccnc21)[C@@H]1CCCO1,-1,0.11
O=C(Nc1ccc(N2CCOCC2)nc1)NC1CCCC1,-2,0.32
CCn1cc(NC(=O)[C@H]2CCN(C)C(=O)C2)cn1,-1,0.16

SMILES,% Inhibition [%],Z score
COC1C2CC3CN(C(=O)c4ccc(C(N)=O)o4)C1C3C2 (stereo not given),3,-0.5
COC(=O)[C@H](C(=O)Nc1ccc(Cl)c(Cl)c1)C1CCCCCC1,-14,1.82
Cc1cn[nH]c1[C@H]1CCCN(S(=O)(=O)c2ccc(F)c(Cl)c2)C1,1,-0.08
CC(=O)NCc1ccc(-c2c[nH]c3ccc(C)cc23)nc1,-2,0.38
Cc1cc(C2CC(C(=O)NCc3ccc4c(c3)OCO4)CN(C(=O)c3ccccc3)C2)ccc1F (stereo not given),-12,1.35
COc1cccc(-n2nc(C(=O)NCc3cccnc3)c(=O)n(Cc3ccccc3Cl)c2=O)c1,4,-0.84
Cc1cc(C(=O)N[C@H]2CCS(=O)(=O)C(C)(C)C2)c(C)n1C,-12,1.32
c1cc(-n2ccnc2)cc(-n2cnnc2)c1,-8,1.06
CCOc1ccc(NC(=O)Cn2[nH]c(-c3ccc(C)cc3)cc2=O)cc1,4,-0.55
O=C(c1csc(-c2cc3ccccc3[nH]2)n1)N1CCN(c2ccccc2)CC1,9,-1.14
O=C(CC(O)c1ccccc1)NC1CCN(c2ccc(F)cc2F)C1 (stereo not given),-8,1.35
CC(=Cc1cnn(C(C)C)c1)c1cnccn1,-16,2.29
O=C(Nc1cccc(C(F)(F)F)c1)[C@H]1C[C@H]2CCCN2[C@@]12C(=O)Nc1ccccc12,-18,1.73
CC1(C)COCCN1CCN[C@H]1CCCc2cc(F)ccc21,-5,0.5
CCC1=NO[C@@H](CN2CCC(O)(Cc3cc(-c4ccccc4)no3)CC2)C1,6,-0.81
CN(C)c1ccc(C(=O)NC2CCC(F)(F)CC2)cc1,-9,1.14
Cc1nc(CC(=O)NCc2cccnc2-n2cnc3ccccc32)cs1,-18,2.63
CC(C)OC1CN(C(=O)CN(C)S(=O)(=O)c2ccccc2)C1,-18,1.9
CCN(CCC#N)C(=O)c1cccc(N(C)C)c1,-13,1.7
CC[C@H](NC(=O)CN1CCOc2ccccc2C1)c1ccc(S(C)(=O)=O)cc1,-23,2.04
Cc1cc(C2(NC(=O)Nc3sc(C)nc3CC(C)C)CCOCC2)on1,4,-0.5
COc1cccc(-n2c(=O)[nH]c3cc(-c4nc(-c5ccccc5)no4)ccc3c2=O)c1,-16,1.84

SMILES,% Inhibition [%],Z score
O=C(C1CCCN1)N1CCOC(C2CCCO2)C1 (stereo not given),-1,0.15
O=C(CN1CCN(c2ccccc2F)C1=O)NCCc1ccccc1,-14,1.64
CNC(=NCc1ccc(CN(C)C)c(F)c1)NC,-4,0.35
Cc1cccc(C)c1NC(=O)[C@H]1c2cccc[n+]2CC(=O)N1c1ccc2c(c1)OCO2,-9,1.37
CC(=O)c1nn(-c2cccc(Cl)c2)cc1C(=O)c1nc2ccccc2s1,-2,0.27
Cc1csc(C(NC(=O)NCC2Cc3ccccc3O2)C2CC2)n1 (stereo not given),-5,0.93
CCN(Cc1ccccn1)C(=O)c1cc(-c2cnc(N)nc2)nc2c(C)c(C)ccc12,-4,0.72
CC[C@@H](c1cc(C)ccn1)n1cc(-c2ccc(OC)nc2)nn1,-9,1.33
Cc1ccc(C)c(NC(=O)N2C[C@H](c3nc(C)no3)C3(CCOCC3)C2)c1,2,-0.47
Cc1cc(C)nc(-n2cc(C(=O)OC3(C4CC4)CC3)c(C)n2)n1,-12,1.09
COc1ccccc1N1CCN(C(=O)[C@H](C)n2nc3c(cc2=O)CCC3)CC1,7,-0.89
C=CCn1ncc(Cc2cnn(CC=C)c2C)c1C,-23,4.39
O=C(CO)N[C@@H]1CCC[C@H]1OC(F)F,-7,1.14
Cc1cc(C)n(CCN(C)C(=O)CCCn2cnnn2)n1,-6,0.94
O=C1NCCCCCN(C(=O)c2ccoc2)[C@H]2CCCC[C@@H]12,-6,0.83
Cc1nc(N2CCCC2)nc(C)c1NC(=O)CCCc1ccccc1,-9,1.59
O=C(NCCC(c1ccccc1)c1ccccc1)c1cccc[n+]1[O-],6,-1
CC(C)c1cc(CN(C)Cc2ccc(Cn3cccn3)cc2)no1,-10,0.99
C[C@@H](N)C(=O)N1CCc2[nH]nc(-c3cccc4ccccc34)c2C1,-16,2.1
